Data: PMC2174347 (The Journal of Cell Biology, 2000)

Target: wild-type ezrin 1-586 (UniProt P15311 1-586)
Assay: solid phase assay

Sequence of UniProt P15311 (P15311 whole entry): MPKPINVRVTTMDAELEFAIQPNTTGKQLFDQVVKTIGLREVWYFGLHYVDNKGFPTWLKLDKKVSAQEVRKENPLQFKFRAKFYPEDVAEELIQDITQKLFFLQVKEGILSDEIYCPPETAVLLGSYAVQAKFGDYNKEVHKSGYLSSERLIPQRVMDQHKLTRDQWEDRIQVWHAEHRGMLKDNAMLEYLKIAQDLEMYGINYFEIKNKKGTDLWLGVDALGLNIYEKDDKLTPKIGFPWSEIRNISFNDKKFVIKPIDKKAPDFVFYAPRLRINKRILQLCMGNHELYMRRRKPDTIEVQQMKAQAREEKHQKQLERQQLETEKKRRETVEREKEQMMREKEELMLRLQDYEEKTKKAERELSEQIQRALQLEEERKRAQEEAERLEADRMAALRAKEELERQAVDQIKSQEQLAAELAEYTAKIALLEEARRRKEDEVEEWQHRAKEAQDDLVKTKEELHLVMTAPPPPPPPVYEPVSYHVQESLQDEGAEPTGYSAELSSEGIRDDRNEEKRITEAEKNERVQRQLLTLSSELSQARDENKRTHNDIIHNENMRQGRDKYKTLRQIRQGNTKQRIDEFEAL

B1: wild-type ezrin […] (domain or fragment)
chain: not shown
binding result: binds
